From a collection of fitness landscapes (doi:10.1126/science.1257360)
Some of the results follow.

B1: PhoQ; a variant is named by its letters at X, in order, P23837 (parent)
chain: MKKLLRLFFPLSLRVRFLLATAAVVLVLSLAYGMVALIGYSVSFDKTTFRLLRGESNLFYTLAKWENNKLHVELPENIDKQSPTMTLIYDENGQLLWAQRDVPWLMKMIQPDWLKSNGFHEIEADVNDTSLLLSGDHSIQQQLQEVREDDDDAEMTHSVAVNVYPATSRMPKLTIVVVDTIPVELKSSYMVWSWFIYVLSANLLLVIPLLWVAAWWSLRPIEALAKEVRELEEHNRELLNPATTRELTSLVRNLNRLLKSERERYDKYRTTLTDLTHSLKTPLXXLQXXLRSLRSEKMSVSDAEPVMLEQISRISQQIGYYLHRASMRGGTLLSRELHPVAPLLDNLTSALNKVYQRKGVNISLDISPEISFVGEQNDFVEVMGNVLDNACKYCLEFVEISARQTDEHLYIVVEDDGPGIPLSKREVIFDRGQRVDTLRPGQGVGLAVAREITEQYEGKIVAGESMLGGARMEVIFGRQHSAPKDE

Variants of: B1
Experiment: enrichment ratio after two sorts for PhoP signalling (ratio (wild type AVST 3.29)); higher = more functional
Conditions: with PhoP (E. coli)
For DSFA, the enrichment ratio was at most 0.25. In the case of YPWS, the enrichment ratio is reported as at most 0.25. For VHAK, the enrichment ratio was at most 0.25. PARN was tested, and the enrichment ratio was at most 0.25. Variant TMGS has an enrichment ratio of 7.47. SKCG showed an enrichment ratio of 3.69. In the case of ADVQ, the enrichment ratio is reported as 10.9. Work on LWAK yielded an enrichment ratio of at most 0.25. Variant ENYG has an enrichment ratio of at most 0.25. Work on TPDM yielded an enrichment ratio of at most 0.25. Variant PHDS has an enrichment ratio of at most 0.25. With FMKE the enrichment ratio was at most 0.25. With SRPS the enrichment ratio was at most 0.25. With FGPL the enrichment ratio was at most 0.25. Work on MNKS yielded an enrichment ratio of at most 0.25. TCSA was tested, and the enrichment ratio was 18.5. With RIPI the enrichment ratio was at most 0.25. Work on VWHC yielded an enrichment ratio of at most 0.25. EGVQ showed an enrichment ratio of at most 0.25. FVCC gave an enrichment ratio of at most 0.25. For LEKD, the enrichment ratio was at most 0.25. Work on FPAC yielded an enrichment ratio of at most 0.25. With VNPF the enrichment ratio was at most 0.25. With NDLI the enrichment ratio was at most 0.25. Variant LMPD has an enrichment ratio of at most 0.25. Work on NSML yielded an enrichment ratio of 4.86. VSAY was tested, and the enrichment ratio was at most 0.25. With YRLL the enrichment ratio was at most 0.25. GIEP showed an enrichment ratio of at most 0.25. DCQS gave an enrichment ratio of at most 0.25. In the case of GLVE, the enrichment ratio is reported as at most 0.25. PTVQ was tested, and the enrichment ratio was at most 0.25. For ESKR, the enrichment ratio was at most 0.25. Variant MTAG has an enrichment ratio of 4.05. With RQLA the enrichment ratio was at most 0.25. Variant TYKI has an enrichment ratio of at most 0.25. RLAM showed an enrichment ratio of at most 0.25. In the case of FSTQ, the enrichment ratio is reported as at most 0.25. For AGDH, the enrichment ratio was at most 0.25. For GQLF, the enrichment ratio was 4.98. DKCI gave an enrichment ratio of at most 0.25. Variant PRQH has an enrichment ratio of at most 0.25. SMLN showed an enrichment ratio of 4.75. Work on AYEL yielded an enrichment ratio of at most 0.25. For NLHS, the enrichment ratio was at most 0.25. Work on NHFW yielded an enrichment ratio of at most 0.25. Work on PEKF yielded an enrichment ratio of at most 0.25. Variant SNSI has an enrichment ratio of 12.4. YDCN was tested, and the enrichment ratio was at most 0.25. Variant SLYD has an enrichment ratio of at most 0.25. NYKT was tested, and the enrichment ratio was at most 0.25. Work on KEHM yielded an enrichment ratio of at most 0.25. With YPAA the enrichment ratio was at most 0.25. RPES showed an enrichment ratio of at most 0.25. CSSR gave an enrichment ratio of at most 0.25. Work on NSPR yielded an enrichment ratio of at most 0.25. WWAS was tested, and the enrichment ratio was at most 0.25. YGQY gave an enrichment ratio of at most 0.25. With KIHF the enrichment ratio was at most 0.25. For KEGN, the enrichment ratio was at most 0.25. HREV was tested, and the enrichment ratio was at most 0.25. ELCI was tested, and the enrichment ratio was at most 0.25. Work on ADVP yielded an enrichment ratio of at most 0.25. In the case of KYCN, the enrichment ratio is reported as at most 0.25. SVSP was tested, and the enrichment ratio was at most 0.25. In the case of DITN, the enrichment ratio is reported as at most 0.25. Variant WERG has an enrichment ratio of at most 0.25. QWFR was tested, and the enrichment ratio was at most 0.25. LLHT was tested, and the enrichment ratio was at most 0.25. LYAD gave an enrichment ratio of at most 0.25. HPWY was tested, and the enrichment ratio was at most 0.25. In the case of LNVP, the enrichment ratio is reported as at most 0.25. LDNC showed an enrichment ratio of at most 0.25. For NGYD, the enrichment ratio was at most 0.25. GGCT showed an enrichment ratio of 15.6. QFVM was tested, and the enrichment ratio was at most 0.25. KNTC was tested, and the enrichment ratio was at most 0.25. Variant QELR has an enrichment ratio of at most 0.25. FSED showed an enrichment ratio of at most 0.25. DKMF showed an enrichment ratio of at most 0.25. In the case of YQEL, the enrichment ratio is reported as at most 0.25. With TEAV the enrichment ratio was 7.67. VLGD showed an enrichment ratio of at most 0.25. Work on MHIS yielded an enrichment ratio of at most 0.25. MAYF gave an enrichment ratio of 16.5. RGYL showed an enrichment ratio of at most 0.25. Variant MTVI has an enrichment ratio of 1.36. DKRR was tested, and the enrichment ratio was at most 0.25. AICK showed an enrichment ratio of 24.4. Work on RTYA yielded an enrichment ratio of at most 0.25. Work on KLYA yielded an enrichment ratio of at most 0.25. In the case of PATW, the enrichment ratio is reported as at most 0.25. Variant VTFR has an enrichment ratio of at most 0.25. EPRY showed an enrichment ratio of at most 0.25. In the case of TANI, the enrichment ratio is reported as 0.96. YEFE gave an enrichment ratio of at most 0.25. In the case of MWCF, the enrichment ratio is reported as at most 0.25. In the case of PKYI, the enrichment ratio is reported as at most 0.25. In the case of FYDD, the enrichment ratio is reported as at most 0.25. AHTK was tested, and the enrichment ratio was at most 0.25. IEAW showed an enrichment ratio of 2.56. KQSG showed an enrichment ratio of at most 0.25. Variant AYVS has an enrichment ratio of at most 0.25. In the case of DCYP, the enrichment ratio is reported as at most 0.25. Variant FQQA has an enrichment ratio of 3.46. Work on FNKH yielded an enrichment ratio of at most 0.25. In the case of QFGE, the enrichment ratio is reported as at most 0.25. IMIY showed an enrichment ratio of at most 0.25. Variant DMQP has an enrichment ratio of 1.17. SGWA gave an enrichment ratio of at most 0.25. LDMA gave an enrichment ratio of at most 0.25. In the case of WSAA, the enrichment ratio is reported as at most 0.25. Variant FWHV has an enrichment ratio of at most 0.25. PQIS gave an enrichment ratio of at most 0.25. IHKL gave an enrichment ratio of at most 0.25. YDTF gave an enrichment ratio of at most 0.25. Variant TPSG has an enrichment ratio of at most 0.25. RGYI showed an enrichment ratio of at most 0.25. Variant IHNM has an enrichment ratio of at most 0.25. In the case of WNPA, the enrichment ratio is reported as at most 0.25. With GMVL the enrichment ratio was 2.37. With KMCY the enrichment ratio was at most 0.25. With KEDT the enrichment ratio was at most 0.25. Work on MQHH yielded an enrichment ratio of at most 0.25. In the case of PHTK, the enrichment ratio is reported as at most 0.25. WEFH was tested, and the enrichment ratio was at most 0.25. Variant MPYF has an enrichment ratio of at most 0.25. For WGFM, the enrichment ratio was at most 0.25. Variant AMFE has an enrichment ratio of at most 0.25. TDII was tested, and the enrichment ratio was 1.96. HHIM was tested, and the enrichment ratio was at most 0.25. Work on IGVK yielded an enrichment ratio of at most 0.25. With FIPD the enrichment ratio was at most 0.25. With NHQN the enrichment ratio was at most 0.25. WEHK showed an enrichment ratio of at most 0.25. QINR gave an enrichment ratio of at most 0.25. In the case of QLET, the enrichment ratio is reported as at most 0.25. NTWR was tested, and the enrichment ratio was at most 0.25. For IWSQ, the enrichment ratio was at most 0.25. DMNS gave an enrichment ratio of at most 0.25. FVPW was tested, and the enrichment ratio was at most 0.25. RHFV gave an enrichment ratio of at most 0.25. In the case of DLKF, the enrichment ratio is reported as at most 0.25. For DVIY, the enrichment ratio was at most 0.25. In the case of NWDG, the enrichment ratio is reported as at most 0.25. With LAEF the enrichment ratio was at most 0.25. Work on YCWL yielded an enrichment ratio of at most 0.25. SVSE showed an enrichment ratio of 2.45. For SPSV, the enrichment ratio was at most 0.25. WAML was tested, and the enrichment ratio was 0.83. With YLAL the enrichment ratio was at most 0.25. For IQKE, the enrichment ratio was at most 0.25. For VDNM, the enrichment ratio was at most 0.25.
